Reference: the supplement of paper PMC9446081
The whole screen tested about 39,000 compounds, of which about 220 (0.56%) showed activity. Some of the results follow.

Each compound was assayed on Escherichia coli K-12 BW25113 (assay: relative growth (OD600 normalised to plate interquartile mean) (fraction); higher = less growth inhibition, active = 0.2 or less). Conditions: 50 µM; LB; incubation time: overnight (16-24 h).
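Further: static incubation at 37 °C against the wild-type strain, values averaged over two biological replicates.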

Compound | relative growth
Cc1noc(C)c1S(=O)(=O)Nc1ccc2c(c1)C(=O)N([C@@H](C)CO)C[C@@H](C)[C@H](CN(C)Cc1ccccc1)OCCCC[C@@H](C)O2 | inactive: 1.01
COCCOC(=O)N1C(=O)[C@@]2(c3cc(C#CCCO)ccc31)[C@H](c1ccccc1OCCO)N1[C@H](c3ccccc3)[C@H](c3ccccc3)OC(=O)[C@H]1[C@@H]2C(=O)N1CCc2cc(OC)c(OC)cc2C1 | inactive: 1.03
COc1ccccc1S(=O)(=O)N(C)C[C@H]1OCc2cnnn2CCCC(=O)N([C@H](C)CO)C[C@H]1C | inactive: 0.995
C[C@H](CO)N1C[C@H](C)[C@H](CN(C)C(=O)C2CCCCC2)Oc2cc(Br)ccc2S1(=O)=O | inactive: 1
Cc1noc(C)c1NC(=O)Nc1ccc2c(c1)C(=O)N([C@@H](C)CO)C[C@@H](C)[C@H](CN(C)C(=O)Nc1ccc(F)cc1)OCCCC[C@@H](C)O2 | inactive: 1.02
C[C@H](O)C#Cc1ccc2c(c1)O[C@H](CN(C)C)[C@H](C)CN([C@@H](C)CO)S2(=O)=O | inactive: 0.972
O=C(NCc1ccccn1)C1CCNCC1 | inactive: 1.02
COC(=O)[C@@H](NC(=O)Cn1cc(C(=O)NO)nn1)c1ccccc1 | inactive: 1.04
C[C@@H](CN1CCCCC1)C(=O)NN | inactive: 0.996
COCC(=O)N1CC(=O)N2[C@H](C1)[C@@H](c1ccc(C#Cc3cccnc3)cc1)[C@@H]2CO | inactive: 1.02
C[C@@H]1CN([C@@H](C)CO)C(=O)Cc2cc(NC(=O)c3ccncc3)ccc2O[C@@H]1CN(C)C(=O)NC1CCCCC1 | inactive: 0.958
C[C@@H]1CN([C@@H](C)CO)C(=O)c2cc(NC(=O)Nc3ccccc3)ccc2O[C@@H]1CN(C)S(C)(=O)=O | inactive: 0.999
COc1ccc(NC(=O)Nc2cccc3c2O[C@@H](CN(C)Cc2ccc(C(=O)Nc4ccccc4N)cc2)[C@@H](C)CN([C@@H](C)CO)C3=O)cc1 | inactive: 1.01
COC(=O)C1=C2CC[C@H](CO)NC(=O)N[C@H](Cc3ccccc3)C(=O)NCc3cn(nn3)C[C@@H](Cc3ccccc3)NC(=O)c3oc(c(C(=O)OC)c3C(=O)OC)CC[C@H](CO)NC(=O)N[C@H](Cc3ccccc3)C(=O)NCc3cn(nn3)C[C@@H](Cc3ccccc3)NC(=O)C(=C1C(=O)OC)O2 | inactive: 0.976
COc1ccc(NC(=O)Nc2ccc3c(c2)C(=O)N([C@@H](C)CO)C[C@@H](C)[C@H](CN(C)C(=O)C2CCCCC2)OCCCC[C@@H](C)O3)cc1 | inactive: 1.02
C[C@@H](O)C#Cc1ccc2c(c1)O[C@@H](CN(C)C(=O)Cc1ccccn1)[C@@H](C)CN([C@@H](C)CO)S2(=O)=O | inactive: 1
CC(=O)OC1CCC2(C)C(=CC=C3C2CCC2(C)C3CCC2C(C)C=CC(C)C(C)C)C1(C)C (configuration not stated) | inactive: 1.08
CCOC(=O)c1cnn2c(=O)cc(C)[nH]c12 | inactive: 0.986
CC(C)c1onc(-c2c(Cl)cccc2Cl)c1COc1ccc(/C=C/c2cccc(C(=O)O)c2)c(Cl)c1 | inactive: 0.866

Compound | relative growth
Cn1cnc(CCNC(=O)C[C@H]2CC[C@H]3[C@@H](COC[C@@H](O)CN3C(=O)C3CC3)O2)c1 | inactive: 1
COc1ccc(S(=O)(=O)N(C)C[C@H]2OCCCC[C@H](C)Oc3ccc(NC(=O)Nc4ccc(C(F)(F)F)cc4)cc3C(=O)N([C@H](C)CO)C[C@@H]2C)cc1 | inactive: 1.05
CNC(=O)C[C@H]1CC[C@H]2[C@@H](COC[C@@H](O)CN2C(=O)c2ccccn2)O1 | inactive: 1.01
Cc1noc(C)c1S(=O)(=O)Nc1ccc2c(c1)CC(=O)N([C@@H](C)CO)C[C@H](C)[C@H](CN(C)S(=O)(=O)c1ccc(Cl)cc1)O2 | inactive: 1.01
Cc1noc(C)c1S(=O)(=O)N(C)C[C@H]1Oc2ccc(NC(=O)Cc3ccccc3)cc2CC(=O)N([C@@H](C)CO)C[C@H]1C | inactive: 0.989
C[C@@H]1CN([C@H](C)CO)C(=O)Cc2cc(NS(=O)(=O)c3cn(C)cn3)ccc2O[C@@H]1CN(C)Cc1ccc2c(c1)OCO2 | inactive: 0.979
C[C@@H]1CCCCO[C@H](CN(C)C(=O)Nc2ccc(C(F)(F)F)cc2)[C@H](C)CN([C@H](C)CO)C(=O)c2cc(NC(=O)c3ccccc3)ccc2O1 | inactive: 0.989
COc1ccc(CN(C)C[C@H]2OCCCC[C@@H](C)Oc3ccc(NS(=O)(=O)c4ccc(OC)cc4)cc3C(=O)N([C@H](C)CO)C[C@H]2C)cc1 | inactive: 1.03
CN[C@@H]1[C@@H](O[C@@]2(C)O[C@H](CO)[C@@H](N)[C@H](O)[C@H]2O)O[C@H]2C[C@@H](N)[C@@H](O[C@H]3[C@H](O)[C@@H](O)[C@H](N)C[C@@H]3N)O[C@@H]2[C@@H]1O | inactive: 0.961
Cc1ccccc1S(=O)(=O)N1C[C@H](O)COC[C@@H]2O[C@@H](CC(=O)N3CCC(Cc4ccccc4)CC3)CC[C@H]21 | inactive: 0.992
COc1ccc([Si](C)(C)[C@@H]2[C@@H](CCO)O[C@]3(C(=O)N(Cc4ccccc4)c4ccc(N5CCCCC5=O)cc43)[C@H]2C)cc1 | inactive: 1.03
C[C@@H]1CN([C@@H](C)CO)S(=O)(=O)c2ccc(C#Cc3ccccc3)cc2O[C@H]1CN(C)C(=O)c1ccccn1 | inactive: 1.02
CCCN(C)C[C@@H]1OCCCC[C@H](C)Oc2ccc(NC(=O)Nc3ccc4c(c3)OCO4)cc2C(=O)N([C@H](C)CO)C[C@@H]1C | inactive: 0.959
C[C@@H]1CN([C@H](C)CO)C(=O)c2cc(NC(=O)Nc3ccc(C(F)(F)F)cc3)ccc2O[C@H]1CN(C)CC1CCCCC1 | inactive: 1.02
C[C@@H]1CN([C@@H](C)CO)C(=O)c2cc(NC(=O)C3CCCCC3)ccc2O[C@@H](C)CCCCO[C@@H]1CN(C)Cc1ccc(Cl)c(Cl)c1 | inactive: 1.01
Cc1ccc(S(=O)(=O)N(C)C[C@@H]2Oc3ccc(NC(=O)NC(C)C)cc3C(=O)N([C@H](C)CO)C[C@@H]2C)cc1 | inactive: 0.998
O=C(C[C@@H]1C[C@H]2c3cc(NC(=O)NC4CCCC4)ccc3O[C@H]2[C@H](CO)O1)NCc1ccc2c(c1)OCO2 | inactive: 1.03
Cn1c(=O)c2c(nc(SCC(=O)NC(C)(C)C)n2C)n(C)c1=O | inactive: 1.01
C[C@H]1CN([C@@H](C)CO)C(=O)c2cccc(NC(=O)Nc3ccc(C(F)(F)F)cc3)c2O[C@@H]1CN(C)Cc1ccc(C(=O)O)cc1 | inactive: 0.973

Compound | relative growth
C[C@H](CO)N1C[C@H](C)[C@@H](CN(C)C(=O)CN(C)C)Oc2cc(C#CCN(C)C)ccc2S1(=O)=O | inactive: 0.998
Cc1ccc(S(=O)(=O)N(C)C[C@@H]2Oc3ccc(NS(C)(=O)=O)cc3C(=O)N([C@H](C)CO)C[C@H]2C)cc1 | inactive: 0.991
Cc1noc(C)c1S(=O)(=O)Nc1ccc2c(c1)CC(=O)N([C@H](C)CO)C[C@@H](C)[C@H](CN(C)CC1CC1)O2 | inactive: 1.05
COc1cccc(C(=O)Nc2ccc3c(c2)C(=O)N(C)[C@@H]2CC[C@@H](CC(=O)NCCCN4CCOCC4)O[C@H]2CO3)c1 | inactive: 1.03
C[C@H]1CN([C@@H](C)CO)C(=O)Cc2cc(NS(C)(=O)=O)ccc2O[C@H]1CN(C)C(=O)Nc1ccccc1 | inactive: 0.93
C[C@@H]1CCCCO[C@H](CN(C)S(=O)(=O)c2ccccc2)[C@H](C)CN([C@H](C)CO)C(=O)c2cc(NS(C)(=O)=O)ccc2O1 | inactive: 1.01
CNCCc1ccccn1 | inactive: 1.01
C[C@@H]1CCCCO[C@@H](CN(C)S(=O)(=O)c2cn(C)cn2)[C@@H](C)CN([C@@H](C)CO)C(=O)c2cc(NC(=O)Nc3cccc4ccccc34)ccc2O1 | inactive: 1.01
Cc1noc(C)c1S(=O)(=O)N(C)C[C@@H]1Oc2ccc(NC(=O)C3CCCCC3)cc2CC(=O)N([C@@H](C)CO)C[C@H]1C | inactive: 0.969
C[C@@H]1CN([C@@H](C)CO)C(=O)CCCn2nncc2CO[C@H]1CN(C)C(=O)C1CC1 | inactive: 1.01
CC1CCC2(C(=O)OC3OC(COC4OC(CO)C(OC5OC(C)C(O)C(O)C5O)C(O)C4O)C(O)C(O)C3O)CCC3(C)C(=CCC4C5(C)CC(O)C(O)C(C)(CO)C5CCC43C)C2C1C (configuration not stated) | inactive: 0.922
C[C@H]1CN([C@@H](C)CO)S(=O)(=O)c2ccc(-c3ccc(C#N)cc3)cc2O[C@@H]1CN(C)C(=O)CN(C)C | inactive: 0.99
CC(C)NC(=O)N(C)C[C@@H]1Oc2ccc(NC(=O)Cc3ccccc3)cc2C(=O)N([C@@H](C)CO)C[C@@H]1C | inactive: 0.966
CC1=C(C)C(=O)C(C(CCCCCC(=O)O)c2ccccc2)=C(C)C1=O (configuration not stated) | inactive: 1.18
C[C@H]1CCCCO[C@H](CN(C)Cc2ccncc2)[C@@H](C)CN([C@@H](C)CO)C(=O)c2cc(NC(=O)Nc3cccc4ccccc34)ccc2O1 | inactive: 0.997
COc1ccc(CNC(=O)C[C@H]2CC[C@H]3[C@H](COc4ccc(NC(=O)C(C)C)cc4C(=O)N3C)O2)cc1 | inactive: 0.954
C[C@@H]1CCCCO[C@H](CN(C)C(=O)NC2CCCCC2)[C@@H](C)CN([C@H](C)CO)C(=O)c2cc(NC(=O)Nc3ccccc3)ccc2O1 | inactive: 0.984
C[C@H]1CN([C@@H](C)CO)C(=O)c2cc(NS(=O)(=O)c3ccccc3)ccc2O[C@@H]1CN(C)S(=O)(=O)c1cccs1 | inactive: 0.999
C[C@H]1CN([C@@H](C)CO)C(=O)c2cccc(NC(=O)Nc3ccccc3)c2O[C@@H]1CN(C)Cc1ccc(Cl)c(Cl)c1 | inactive: 0.95
